In all, about 81,000 sequences were measured (“one-hybrid fitness for binding parS DNA”: median about -0.17, highest 2% from about 0.51 on). Some of the results follow.
B1: Caulobacter ParB omega fusion; a variant is named by its letters at X, in order, B8GW30 (parent)
chain: MESVVVGEPGMSEGRRGLGRGLSALLGEVDAAPAQAPGEQLGGSREAPIEILQRNPDQPRRTFREEDLEDLSNSIREKGVLQPILVRPSPDTAGEYQIVAGERAWRAAQRAGLKTVPIMVRELDDLAVLEIGIIENVQRADLNVLEEALSYKVLMEKFERTQENIAQTIGKSXSHVANXMRLLXLPDEVQSYLVSGELTAXHARAIAAAADPVALAKQIIEGGLSVRETEALARKAPNLSAGKSKGGRPPRVKDTDTQALESDLSSVLGLDVSIDHRGSTGTLTITYATLEQLDDLCNRLTRGI

Variants of: B1
Assay: one-hybrid fitness for binding parS DNA (scaled: cognate 1, non-cognate 0); higher = stronger binding
Conditions: with parS DNA site
Procedure, shortened: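 In E. coli USO, a HIS3 reporter with its site placed 19 bp from the promoter was used to select Caulobacter ParB variants randomised at four specificity codons. Growth lasted 48 hours at 37°C on histidine-free M9 containing 0.1 mM IPTG and 5 mM 3-AT. Fitness was taken as the log change in variant-to-wild-type read ratio from Illumina sequencing of pre- and post-selection plasmids, rescaled between the non-cognate and cognate sites.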

Variant	one-hybrid fitness for binding parS DNA
AACN	≤ 0.2
SMDM	≤ 0.2
SWDL	≤ 0.2
LPLS	≤ 0.2
LTRW	≤ 0.2
YCVR	≤ 0.2
QRMT	≤ 0.2
ASIG	≤ 0.2
CITT	≤ 0.2
QCQV	≤ 0.2
TYSI	≤ 0.2
LDRF	≤ 0.2
WQTV	≤ 0.2
LWGF	≤ 0.2
GMNT	≤ 0.2
LKTR	≤ 0.2
ECKL	≤ 0.2
LNAC	≤ 0.2
RFNK	0.203
YIRC	≤ 0.2
QKAW	≤ 0.2
IIDW	≤ 0.2
DRMI	≤ 0.2
PPQY	≤ 0.2
PILR	≤ 0.2

Variant	one-hybrid fitness for binding parS DNA
WNAR	≤ 0.2
LFKR	≤ 0.2
QQRG	≤ 0.2
QRAH	≤ 0.2
LPLE	≤ 0.2
MRWL	≤ 0.2
IAAC	≤ 0.2
RRIN	0.304
NLKI	≤ 0.2
LILW	≤ 0.2
RVFK	≤ 0.2
CKET	≤ 0.2
NYSS	≤ 0.2
RHPT	0.336
TDNM	≤ 0.2
RPYK	≤ 0.2
WQNE	≤ 0.2
LHRM	≤ 0.2
AWFT	≤ 0.2
QIQS	≤ 0.2
QEDG	≤ 0.2
IYDI	≤ 0.2
CAGY	≤ 0.2
TLPK	≤ 0.2
HTNV	≤ 0.2

Variant	one-hybrid fitness for binding parS DNA
WTNT	≤ 0.2
ANTV	≤ 0.2
KEIV	≤ 0.2
RMNQ	≤ 0.2
KTHS	≤ 0.2
HHAF	≤ 0.2
QPSK	≤ 0.2
VVPC	≤ 0.2
VNTT	≤ 0.2
CADN	≤ 0.2
NNFS	≤ 0.2
NNRS	≤ 0.2
QLTQ	≤ 0.2
QQFT	≤ 0.2
SRFS	≤ 0.2
FKHR	≤ 0.2
FWHS	≤ 0.2
GTKY	≤ 0.2
KYIS	≤ 0.2
HAWY	≤ 0.2
AGIW	≤ 0.2
LRFS	≤ 0.2
ELCT	≤ 0.2
PSEV	≤ 0.2
WIVC	≤ 0.2

Variant	one-hybrid fitness for binding parS DNA
GSSI	≤ 0.2
ILFE	≤ 0.2
LVRE	≤ 0.2
WQLM	≤ 0.2
PITL	≤ 0.2
TAIR	≤ 0.2
WGTT	≤ 0.2
VRAP	≤ 0.2
QEQG	≤ 0.2
SGRV	≤ 0.2
CIYS	≤ 0.2
MLNV	≤ 0.2
YTHP	≤ 0.2
KSTM	≤ 0.2
CLQS	≤ 0.2
YNIV	≤ 0.2
PMKT	≤ 0.2
MPHG	≤ 0.2
TDMT	≤ 0.2
IRHS	≤ 0.2
ESLI	≤ 0.2
CIDG	≤ 0.2
WVPG	≤ 0.2
SISA	≤ 0.2
SVHN	≤ 0.2

Variant	one-hybrid fitness for binding parS DNA
HHAR	≤ 0.2
NRIG	≤ 0.2
PQSK	≤ 0.2
PYMC	≤ 0.2
MDRC	≤ 0.2
SSHD	≤ 0.2
PPHY	≤ 0.2
RCVS	1.02
GHRG	≤ 0.2
FPNR	≤ 0.2
GQHR	≤ 0.2
SGID	≤ 0.2
NPIP	≤ 0.2
GAPN	≤ 0.2
MQAL	≤ 0.2
QRPY	≤ 0.2
TTWM	≤ 0.2
TINC	≤ 0.2
TYTA	≤ 0.2
STTY	≤ 0.2
TAAD	≤ 0.2
NMMC	≤ 0.2
GFPT	≤ 0.2
RPAD	≤ 0.2
TTEK	≤ 0.2

Variant	one-hybrid fitness for binding parS DNA
CGGG	≤ 0.2
AYRY	≤ 0.2
GEDA	≤ 0.2
TSLE	≤ 0.2
VMFC	≤ 0.2
QFAT	≤ 0.2
QNQM	≤ 0.2
QGNA	≤ 0.2
IGAF	≤ 0.2
VILC	≤ 0.2
HGIS	≤ 0.2
ANCG	≤ 0.2
ASYR	≤ 0.2
RMFY	0.492
EPIC	≤ 0.2
QHKW	≤ 0.2
ASYV	≤ 0.2
LNYL	≤ 0.2
PAFC	≤ 0.2
QTYK	≤ 0.2
VGKS	≤ 0.2
AYFC	≤ 0.2
HRND	≤ 0.2
KVKY	≤ 0.2
SHRA	≤ 0.2

Variant	one-hybrid fitness for binding parS DNA
RSLR	≤ 0.2
PKPI	≤ 0.2
HPYG	≤ 0.2
AASD	≤ 0.2
LFRC	≤ 0.2
VWVK	≤ 0.2
DRYW	≤ 0.2
TDMR	≤ 0.2
QNQS	≤ 0.2
VNLT	≤ 0.2
RCQG	1.02
WCPS	≤ 0.2
YLES	≤ 0.2
WPAC	≤ 0.2
LRHQ	≤ 0.2
VRNG	≤ 0.2
ACGG	≤ 0.2
RNHM	≤ 0.2
MDPL	≤ 0.2
NMTG	≤ 0.2
LRTC	≤ 0.2
NPND	≤ 0.2
PLPC	≤ 0.2
IYTS	≤ 0.2
GVQC	≤ 0.2

Variant	one-hybrid fitness for binding parS DNA
MPHT	≤ 0.2
KFDR	≤ 0.2
MSAP	≤ 0.2
WHLC	≤ 0.2
CVIV	≤ 0.2
VYVT	≤ 0.2
STAG	≤ 0.2
AHNE	≤ 0.2
PFTS	≤ 0.2
TSDE	≤ 0.2
TFEE	≤ 0.2
GKSR	≤ 0.2
FSEF	≤ 0.2
AFPE	≤ 0.2
NSCL	≤ 0.2
GFNG	≤ 0.2
TADR	≤ 0.2
STDK	≤ 0.2
SQKA	≤ 0.2
PKME	≤ 0.2
